In all, about 52,000 compounds went through this assay and about 1,700 (3.3%) were called active. Cut-off read from the data, not from the text of the source: active = survival mostly below about 52% (no sharp cut-off); inactive = mostly above about 56%. The list shows a part of the results.
These molecules were tested on Wild type (assay: growth inhibition of S. aureus wild type versus tarO mutant, primary screen, teichoic acid synthesis inhibitors, RN4220, OD600 (AID 463173)). Conditions: S. aureus RN4220 wild type/DeltatarO growth, OD600, 18 h, hits give low values, screened at 18.75 µg/mL (by protocol).

Row | SMILES | survival
1 | Cc1ccc(CNC(=O)CS(=O)(=O)Cc2nc(-c3ccccc3C)oc2C)cc1 | inactive: 127%
2 | CCCCCn1c(=O)[nH]c2cc(C(=O)NCc3ccccc3)ccc2c1=O | inactive: 83%
3 | CCCOc1ccc(NC(=O)C(=O)NCCCN2CCOCC2)cc1 | inactive: 75%
4 | COC(=O)CNC(=O)c1cc2sccc2n1Cc1ccccc1 | inactive: 99%
5 | CCOc1ccc(NC(=O)CCc2c(C)nc3cc(-c4ccc(Cl)cc4)nn3c2C)cc1 | inactive: 74%
6 | CC(C)CNS(=O)(=O)c1ccc(N2CCCCS2(=O)=O)cc1 | inactive: 84%
7 | Cc1cccc(-c2noc(CNC(=O)c3ccccc3Br)n2)c1 | inactive: 92%
8 | Cc1ccc(NC(=O)c2sc(-n3nc(C)c(Cc4ccc5c(c4)OCO5)c3C)nc2C)cc1Cl | inactive: 121%
9 | COc1ccc(CNC(=O)Cc2c(C)c3c(cc(C)c4c(C)c(C)oc43)oc2=O)cc1OC | inactive: 89%
10 | Cc1cccc(Cn2c(SCc3ccc(C(=O)NC4CCCC4)cc3)nc3ccncc32)c1 | inactive: 76%
11 | CCN(CC)S(=O)(=O)c1ccc2c(c1)N(CC(=O)NCCCN1CCN(c3cc(Cl)ccc3C)CC1)C(=O)CO2 | inactive: 65%
12 | CC1CCN(S(=O)(=O)c2ccc3c(c2)oc(=O)n3CC(=O)O)CC1 | active: -3%
13 | COc1ccc(CC(=O)Nc2ccc3nc(N4CCCCC4)cc(C)c3c2)cc1 | inactive: 86%
14 | COc1ccc(Cn2c(=O)c3ccccc3n3c(-c4cccc(OC)c4OC)nnc23)cc1 | inactive: 87%
15 | Cc1cccc(NC(=O)C2CCN(c3cnccn3)CC2)c1 | inactive: 93%
16 | CCOC(=O)c1c(NC(C)=O)c2c3c(sc2n1Cc1nc(-c2ccccc2Cl)oc1C)CCCC3 | inactive: 127%
17 | Cc1ccc(CNC(=O)c2cc3c(s2)-c2c(C)cccc2OC3)cc1 | inactive: 96%
18 | COc1ccc2c(c1)c1c(c(=O)n(Cc3ccccc3)c(=O)n1CC(=O)NCc1ccccc1)n2C | inactive: 119%
19 | Cc1cc(C)cc(NC(=O)N2CCN(c3cc(-c4noc(C)n4)ccc3C)CC2)c1 | inactive: 76%
20 | COc1ccc(CNCc2c(C(=O)O)n(Cc3ccc(F)cc3)c3cc(C)ccc23)cc1OC | inactive: 80%
21 | CN(C)CCN(Cc1ccco1)C(=O)c1oc2ccccc2c1NC(=O)c1cccc(F)c1 | inactive: 121%
22 | CCOCCCNC(=O)c1ccc(-n2c(-c3ccccc3)cc3c2CCCCC3)cc1 | inactive: 96%
23 | CCC(=O)N1CCc2cc(Br)cc(S(=O)(=O)CCC(=O)Nc3cccc(C)c3C)c21 | inactive: 161%

Row | SMILES | survival
24 | COCCn1c(C)cc(O)c(C(c2ccc(F)cc2)N2CCN(c3ccccc3)CC2)c1=O (centres undefined) | inactive: 60%
25 | CCOC(=O)c1c(C)c(-c2ccccc2)n(CC(=O)NCCc2cccc(C)c2)c1C | inactive: 87%
26 | COc1ccc(CC(=O)NCCS(=O)(=O)N2CCN(c3ccc(F)cc3)CC2)cc1OC | inactive: 84%
27 | O=C(CSc1nc(=O)[nH]c2c1CCCC2)NCc1ccc(F)cc1 | inactive: 68%
28 | CCNC(=O)c1c(NC(=O)c2nc(S(=O)(=O)CC)ncc2Cl)sc2c1CCCC2 | inactive: 45%
29 | COc1ccccc1NC(=O)c1sc2nc3c(cc2c1N)CN(Cc1ccccc1)CC3 | inactive: 103%
30 | N#Cc1ccccc1Cn1cnc2nc3c(cc2c1=O)CCCC3 | inactive: 75%
31 | CCc1nc(C)cn1S(=O)(=O)c1ccc(Cl)c(Cl)c1OC | inactive: 77%
32 | Cc1cccc(C(=O)NC2=NC(c3ccc(Cl)cc3)CC(=O)N2)c1 (centres undefined) | inactive: 79%
33 | CCCOc1ccc(C(=O)Nc2ccc(NC(=O)c3ccccc3)c(C)c2)cc1 | inactive: 69%
34 | CCc1cc(=O)[nH]c(SCc2nc(-c3ccccc3)no2)n1 | inactive: 87%
35 | Cc1cccc(CC(=O)NCc2nc3cccnc3n2Cc2ccc(F)cc2)c1 | inactive: 64%
36 | Cc1nnc2c(N3CCN(c4ccccc4F)CC3)nc3ccc(C(=O)c4ccccc4)cc3n12 | inactive: 74%
37 | CS(=O)(=O)Nc1ccccc1C(=O)OCc1cc(=O)n2nc(C3CCCCC3)sc2n1 | inactive: 79%
38 | Cc1cc(F)ccc1NC(=O)CS(=O)(=O)c1cccc2nsnc12 | inactive: 73%
39 | Cc1ccccc1Nc1c(-c2ccccc2)nc2cccc(C)n12 | inactive: 73%
40 | O=C(Cn1cnc2c(nc3n2CCCCC3)c1=O)Nc1ccc(F)c(Cl)c1 | inactive: 124%
41 | CCOC(=O)C1CCC(CN(Cc2ccc(OC)cc2)S(=O)(=O)c2ccc(F)c(C(=O)Nc3c(C)cccc3C)c2)CC1 (centres undefined) | inactive: 72%
42 | O=C(Nc1cccc(Cl)c1)C1CCCN(c2ncnc3c2nc2n3CCCCC2)C1 (centres undefined) | inactive: 36%
43 | CC(C)c1ccc(NC(=O)N2CCC(c3nc4ccccc4o3)CC2)cc1 | inactive: 102%
44 | Nc1nnc(CCC(CCc2nnc(N)s2)(CCc2nnc(N)s2)C(=O)c2ccccc2)s1 | inactive: 112%
45 | COc1ccc(N2CC(NC(=O)C3CCCC3)CC2=O)cc1OC (centres undefined) | inactive: 126%
46 | COc1ccc(CNc2nc(SCc3ccccc3Cl)nc3ccccc23)cc1 | inactive: 101%

Row | SMILES | survival
47 | CSc1ccc(CCNC(=O)c2cc3cc(S(=O)(=O)N4CCCCC4)ccc3n2C)cc1 | inactive: 53%
48 | CCN(C(=O)c1cn(CC(C)C)c(=O)c2cc(OC)c(OC)cc12)c1cc(OC)ccc1OC | inactive: 80%
49 | CC(C)c1ccc(NC(=O)Cn2nnc(C(=O)NCc3ccc(Cl)cc3)c2N)cc1 | inactive: 66%
50 | COc1ccc2c(c1)sc1ncc(C(=O)NCc3cccc(C)c3)c(=O)n12 | inactive: 66%
51 | CCN(CC)S(=O)(=O)c1ccc(-c2nnc(SCC(=O)Nc3nc4ccccc4s3)o2)cc1 | inactive: 108%
52 | CCN(CC)C(=O)N1c2ccccc2Sc2ccccc21 | inactive: 108%
53 | CC1CCCN(S(=O)(=O)c2cc3c4c(c2)CC(=O)N4CCC3)C1 (centres undefined) | inactive: 81%
54 | Cn1nc(C(=O)N2CCN(c3ccc(F)cc3)CC2)c2c1-c1ccccc1SC2 | inactive: 89%
55 | COc1ccc(CCNC(=O)c2cn(C)c3ccc(S(=O)(=O)N(C)C)cc3c2=O)cc1OC | inactive: 80%
56 | CCc1ccc(C(=O)c2cn(CC(=O)Nc3cc(F)ccc3F)c3nc(C)ccc3c2=O)cc1 | inactive: 135%
57 | CC1CCCCN1C(=O)CCS(=O)(=O)c1cc2c(cc1Cl)NC(=O)CO2 (centres undefined) | inactive: 87%
58 | COc1cccc(CNCCCSc2nnnn2C)c1OC | inactive: 98%
59 | COc1ccc(NC(=O)CCc2nnc3n(Cc4ccc(C)cc4)c(=O)c4ccccc4n23)cc1 | inactive: 92%
60 | CCc1ccccc1NC(=O)Cn1ccn(Cc2ccccc2)c(=O)c1=O | inactive: 84%
61 | O=C(NC1CCS(=O)(=O)C1)c1ccccc1C(=O)c1ccccc1 (centres undefined) | inactive: 107%
62 | Cc1cccc(C(=O)N2CCc3cc(CNS(=O)(=O)c4ccc(F)c(Cl)c4)ccc32)c1 | inactive: 78%
63 | CCS(=O)(=O)c1nc(S(=O)(=O)c2ccc(C)cc2)c(NC)s1 | inactive: 82%
64 | COc1ccc(NS(=O)(=O)c2ccc3[nH]c4c(c3c2)CCCCC4)cc1 | inactive: 127%
65 | CC(=O)Nc1c(C)nn(-c2ccccc2)c1N1CCC(C(=O)Nc2ccccc2F)CC1 | inactive: 57%
66 | Cn1c2ccccc2c2cnn(CC(=O)NCCCN3CCN(c4ccccc4F)CC3)c(=O)c21 | inactive: 84%
67 | Cc1cc(N)n2ncc(-c3ccccc3)c2n1 | inactive: 114%
68 | O=C(CN1CCC(NC(=O)NC2CCCCC2)CC1)Nc1cccc(I)c1 | inactive: 99%
69 | COc1ccc(CCNC(=O)c2ccc3c(c2)ncn3-c2ccc(C(C)C)cc2)cc1OC | inactive: 80%

Row | SMILES | survival
70 | CC(C)c1ccc2occ(CC(=O)N(Cc3ccc(F)cc3)C3CCS(=O)(=O)C3)c2c1 (centres undefined) | inactive: 76%
71 | Cc1cc(/C(O)=C2\C(=O)C(=O)N(CCCN(C)C)C2c2ccc(O)cc2)ccc1OCC(C)C (centres undefined) | inactive: 112%
72 | O=C(Nc1ccccc1)N(Cc1cccc(Cl)c1)c1ccccn1 | inactive: 75%
73 | CC(=O)c1ccc(N2CCN(C(=O)Nc3ccc(C(C)C)cc3)CC2)cc1 | inactive: 85%
74 | COc1ccc(NC(=O)c2ccco2)cc1NC(=O)c1c(OC)cccc1OC | inactive: 67%
75 | CCC(=O)NCC1COc2ccccc2O1 (centres undefined) | inactive: 109%
76 | COc1ccccc1NC(=O)C1=C(C)Nc2ncnn2C1c1cccn1C (centres undefined) | active: 0%
77 | CCOc1ccc(CN2C(=O)c3ccccc3C2C(=O)NCCc2ccc(OC)c(OC)c2)cc1 (centres undefined) | inactive: 69%
78 | COc1ccc(Cn2c(CO)cnc2SCc2ccccc2C)cc1 | inactive: 78%
79 | COc1ccc(CNC(=O)Cc2c(C)c3cc4c(C)coc4c(C)c3oc2=O)cc1OC | inactive: 98%
80 | CCOC(=O)c1c(S(=O)(=O)N2CCC(C(=O)Nc3ccc(F)cc3F)CC2)c(C)n(C)c1C | inactive: 80%
81 | CCOc1ccc(CNS(=O)(=O)c2ccc3c(c2)CCCN3C(C)=O)cc1 | inactive: 66%
82 | CC1Cc2cc(S(=O)(=O)CCC(=O)NCc3ccccc3Cl)ccc2N1C(=O)C1CC1 (centres undefined) | inactive: 72%
83 | COc1ccc(-n2cc(C(=O)Oc3cc(C)cc(C)c3)c3ccccc3c2=O)cc1 | inactive: 153%
84 | COc1cccc(NC(=O)Cn2cc(C(=O)c3ccco3)c3ccccc32)c1 | inactive: 64%
85 | O=C(CCSc1nc(-c2ccco2)cc(C(F)(F)F)n1)NC1CC1 | inactive: 111%
86 | Cc1ccc(C)c(NC(=O)C2CCN(c3cc(C)nc4c(-c5ccc(Cl)cc5)c(C)nn34)CC2)c1 | inactive: 83%
87 | CCC(=O)N1CCc2cc(S(=O)(=O)Nc3cc(C)ccc3OC)ccc21 | inactive: 73%
88 | COc1ccccc1CC(=O)Nc1ccc2nc(Nc3cccc(Cl)c3)cc(C)c2c1 | inactive: 148%
89 | Cc1ccc(-n2c(SCC(=O)c3ccccc3)nc3c([nH]c4ccccc43)c2=O)cc1 | active: -6%

— PubChem BioAssay AID463173 (ICCB-Longwood Screening Facility, Harvard Medical School, 2010)
